Results: the supplement of paper PMC3724861
Some of the results follow.

What follows are sequences tested on T1, Caupolican (Caup) homeodomain DNA-binding domain (assay: PBM E-score (8-mer, recovered from the published 9-mer minima) (E-score (dimensionless, -0.5 to 0.5)); Drosophila protein; higher = stronger relative binding preference, active = 0.31 or more).
T1 sequence: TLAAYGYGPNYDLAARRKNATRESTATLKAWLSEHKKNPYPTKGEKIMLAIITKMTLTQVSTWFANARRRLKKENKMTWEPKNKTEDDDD
Method in brief: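 Caup's homeodomain DNA-binding domain (residues 214-303) was produced by in vitro transcription and translation and applied at 100 nM to custom-designed protein binding microarrays. Each value is an enrichment score giving relative binding preference for a short DNA word; higher means stronger. Published 9-mer scores were the minimum of their two constituent 8-mer scores, and the 8-mer values were recovered from those minima. A cutoff of 0.31 marks candidate binding sequences.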

Sequence	PBM E-score
GCCAGATA	inactive: 0.0198
ACGTCATA	inactive: 0.144
CCTATAGC	inactive: -0.0609
CTTAGGTC	inactive: -0.112
ATCCCACG	inactive: -0.115
AGCATACG	inactive: -0.0321
CGCTCAGA	inactive: -0.0619
CCTTCGGA	inactive: -0.217
AGCGCATA	inactive: 0.0861
AACTGCCA	inactive: -0.103
AATAGACG	inactive: 0.0464
ATTGTGAG	inactive: -0.00149
ACGCCAAT	inactive: -0.0189
CCTCGCAG	inactive: -0.211
CATGCGAA	inactive: 0.048
CTGTAAAG	inactive: 0.0792
CCCTCATC	inactive: -0.071
CCTGCCCA	inactive: -0.155
CCGTGGAG	inactive: -0.191
CAGTCCGA	inactive: -0.0187
GCCGTACC	inactive: -0.214
ACGAAATA	inactive: 0.136
CAGGCCGG	inactive: -0.192
GTCGAGGA	inactive: -0.0553
ACCATGCC	inactive: -0.0174

Sequence	PBM E-score
AACCACAG	inactive: -0.00398
TAGATACA	inactive: 0.258
AAGGCGTC	inactive: -0.129
CAGTCAGG	inactive: -0.056
CGCCTGTC	inactive: -0.0132
CAAGAGAG	inactive: -0.0747
GAAATATA	inactive: 0.19
ATCACTGA	inactive: 0.0623
CTACTGCA	inactive: 0.092
ATCGTCAG	inactive: 0.0328
AGCCTAAC	inactive: -0.0972
CAATCCGA	inactive: 0.0536
AGTGGCCC	inactive: -0.198
GCCCCACC	inactive: -0.234
AAAGAATG	inactive: 0.146
AACCTCCT	inactive: -0.0171
GACCTGGA	inactive: -0.125
ACATAAAT	active: 0.318
CAGTCGAG	inactive: -0.131
GGACTAAC	inactive: 0.0611
AGGTCATA	inactive: 0.0294
CCAGTGCA	inactive: -0.0461
AGCAACAT	inactive: 0.244
CCGAGCTC	inactive: -0.14
AAACCACC	inactive: -0.105

Sequence	PBM E-score
CCTGCGGC	inactive: -0.288
ACTACCCA	inactive: -0.0238
CCCCGGGA	inactive: -0.227
AGAAGATC	inactive: -0.0662
AAGCCGAT	inactive: -0.016
GGCCCAGA	inactive: -0.262
ATAATCAC	inactive: 0.159
TTACAAAA	inactive: 0.203
ATATGTTC	active: 0.347
GGTATGAC	inactive: 0.0376
CCTCTGAA	inactive: -0.139
CCTCGTCC	inactive: -0.118
CCGTGCTC	inactive: 0.0654
TGAGATAA	inactive: 0.0767
GTGGAATA	inactive: 0.0463
ACTCCGCG	inactive: -0.143
GACGAGCA	inactive: -0.0101
ACGACAGA	inactive: 0.0786
CGCCAAAA	inactive: -0.109
ACTTCGAC	inactive: 0.0234
CATGCTGG	inactive: 0.0451
ATCCAAGA	inactive: 0.0394
CTCTGATC	inactive: -0.0475
AGGAACTG	inactive: -0.0798
CATTCTTA	inactive: 0.0205

Sequence	PBM E-score
ATGTTGTG	inactive: 0.282
ACCGGCGC	inactive: -0.159
CTGTTACC	inactive: 0.142
GCGTAGAC	inactive: -0.149
TCGACCAA	inactive: -0.0712
GTGGCGTA	inactive: -0.00325
TATTCCAA	inactive: 0.0797
ATGGACGA	inactive: 0.0414
GCTCTAGA	inactive: -0.155
ATGTGGAC	inactive: 0.167
CTACTTGA	inactive: 0.136
CACAACCG	inactive: 0.119
ATAAGATC	inactive: 0.0436
CAGATCCC	inactive: -0.111
CCTTCTTA	inactive: -0.0401
GGCAGCCA	inactive: -0.198
CGTGAAGA	inactive: -0.00622
CTGGACGC	inactive: -0.187
GAATATCA	inactive: 0.0584
AGGACCGG	inactive: -0.193
GGACCGGA	inactive: -0.113
TAACACTA	inactive: 0.237
ACCGGGAG	inactive: -0.137
ATGTCTCC	inactive: 0.189
ACCAAAAC	inactive: -0.016

Sequence	PBM E-score
ACGACCTC	inactive: 0.0193
AGGTATTG	inactive: 0.115
ATTGTTTA	inactive: 0.186
GAACACTA	inactive: 0.103
CTTGTTCC	active: ≥ 0.337
CATTGTAG	inactive: 0.0869
GAAACTAC	inactive: 0.164
ATATACAT	active: 0.367
CCTCCAGC	inactive: -0.243
AAATTCCT	inactive: -0.0223
CGTGTCAG	inactive: 0.276
CAGGCTAG	inactive: -0.202
ACGCACGA	inactive: -0.00376
CTGTGAAA	inactive: 0.0676
ATAGTTCG	inactive: 0.094
ATGCGTCC	inactive: -0.111
GGACGCAA	inactive: -0.116
ATAGTAAC	inactive: 0.226
GCGAGCTA	inactive: -0.0948
AGAGTAAA	inactive: 0.0325
ACGTTACT	inactive: 0.105
AACACAAA	inactive: 0.207
TCAAAGCA	inactive: 0.0158
CATTGTCG	inactive: 0.0947
ACAGTCAA	inactive: 0.0187

Sequence	PBM E-score
TAACAGTA	inactive: 0.142
CTCGAACC	inactive: -0.035
CACAGGAG	inactive: 0.0312
CTGTGTGC	inactive: -0.0744
CGCTACGA	inactive: -0.0623
CGTGCCCC	inactive: -0.14
CATGCTAC	inactive: 0.15
GATAGCCA	inactive: -0.0628
AGGCCCAG	inactive: -0.214
CTGATAAA	inactive: 0.131
ACCGAGTC	inactive: -0.0964
ACCGACAG	inactive: -0.082
CCCGACCC	inactive: -0.206
ACTATATA	inactive: 0.167
AAGTTTCA	inactive: 0.018
CGCACACA	inactive: -0.0192
GGCGCCAA	inactive: -0.109
CGTCAGTC	inactive: -0.0655
AGTTGAGA	inactive: -0.0383
GCTTGCTA	inactive: -0.0628
TATACTAA	inactive: 0.179
ATTTACGC	inactive: 0.0107
ATATTCGG	inactive: 0.0222
GGCGGCCA	inactive: -0.196
ACGTGCCA	≥ 0.0232

Sequence	PBM E-score
GGACCGTA	inactive: -0.147
CCCGCGGG	inactive: -0.221
ATCGTCTG	inactive: 0.00406
AACAACGT	inactive: 0.252
GCACAGCA	inactive: -0.00134
CCGGAGTA	≥ -0.0149
CTGCGTTC	inactive: -0.0733
CATACCAA	inactive: 0.164
AGACGATC	inactive: -0.0741
ACTGGGAC	inactive: 0.0611
GCACAGAA	inactive: -0.0167
GAGTAACC	inactive: -0.034
GGAAGGTA	inactive: -0.0159
GAGGGGCA	inactive: -0.162
GGGGGGAA	inactive: -0.279
GAAAGATC	inactive: -0.09
CTGTATGC	inactive: 0.0355
CAATAGGC	inactive: -0.0224
AGTGCTAT	inactive: 0.0743
CAATGAGG	inactive: -0.0553
AAGGCGCA	inactive: -0.0698
AGAACCCC	inactive: -0.194
CTGGGGCA	inactive: -0.226
TAACGTCA	≥ 0.0839
GTAAACGA	inactive: 0.0684

Sequence	PBM E-score
GCGAGAAA	inactive: -0.09
GTGACTGA	inactive: 0.103
AACCGGCC	inactive: -0.2
CCAATGCA	inactive: 0.0557
AGAGAAAC	inactive: 0.108
CTCGTATA	inactive: 0.0503
CCTGTTCG	inactive: 0.0935
GGGATTCA	inactive: -0.0518
AACTTCAT	inactive: 0.108
TGTATGAA	inactive: 0.195
ACATCCAG	inactive: 0.177
AGGTGAAT	inactive: 0.0215
CGATAGCC	inactive: -0.126
CACGACGG	inactive: 0.00986
CCGAAAGG	inactive: -0.109
CCACCTCG	inactive: -0.215
AAAAGTAA	inactive: 0.107
ACTGCCTA	inactive: 0.0161
CTGGTAAA	inactive: 0.0826
ATCGTTGC	inactive: 0.0388
ATTGAACG	inactive: 0.0649
AGCGTAAG	inactive: -0.163
ATCACGAG	inactive: 0.0314
AGGACCAG	inactive: -0.123
AAGCAAAT	≥ 0.13

Sequence	PBM E-score
CAGCCTAG	inactive: -0.117
ACGCTTTG	inactive: -0.0992
GCTATCCC	inactive: -0.124
ACTCTGAT	inactive: 0.026
CGCGGACG	inactive: -0.166
GGCACAGA	inactive: -0.103
AGCCGCCT	inactive: -0.222
CCCTTCTA	inactive: -0.0818
ACTGGCGC	inactive: -0.147
GGTTGCCA	inactive: -0.079
GCAGCGAC	inactive: -0.118
GGACGGAA	inactive: -0.0946
ACAAGATA	active: 0.342
CGCCAACG	inactive: -0.132
AGCCCCCG	inactive: -0.288
GGTACGGA	inactive: -0.0204
AGGGTAGA	inactive: -0.154
ACTGCGAA	inactive: -0.0547
AGCTAGGC	inactive: -0.138
ACGTCCCA	inactive: -0.0135
CATGTCGC	active: 0.363
GCTCCTAC	inactive: -0.0796
